{"source": "PubChem BioAssay AID686971", "about": "(National Center for Advancing Translational Sciences (NCATS), 2013)", "note": "The whole screen tested about 360,000 compounds, of which about 7,500 (2.1%) were called active. Inconclusive means that the source gave no clear call. Such entries were picked first, then a sample of the others. The call rests on the fitted dose curve; in most records, active means well fitted cell-killing curve with a large enough effect; inconclusive means small, poorly fitted or top-dose-only effect, or effect the other way, or another doubt; inactive means no such curve, though single readings can be large or run the other way. No potency is given beside an inconclusive call; the fits are too rough. Potency means the concentration at half of the fitted maximal effect; tags describe the fitted curve by direction and shape.", "data": [{"assay": "qHTS for induction of synthetic lethality in tumor cells producing 2HG: qHTS for the HT-1080-IDH1KD cell line;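 on activity, negative = toxicity: 0% = DMSO wells and -100% = cell-free medium wells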", "settings": "HT-1080 IDH1 knockdown viability, ATP luminescence, 48 h; activity, negative = toxicity: at 46.1 µM (top of the series) unless noted", "method_in_brief": "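Using the IDH1-knockdown HT-1080 line run in the same batch and compound series as the NT line, viability after 48 h at 37 °C was determined by CellTiter-Glo luminescence and expressed as % activity.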", "values": [{"molecule": "CCOC(=O)c1nnn(-c2nonc2N)c1CN(CC)c1ccccc1", "Potency": "inactive"}, {"molecule": "CN=C(Nc1cc(C)nn1-c1ccccc1)c1ccccc1F", "Potency": "inactive"}, {"molecule": "CCCCn1nnnc1C(c1ccccc1)N1CCN(c2ncccc2C(F)(F)F)CC1", "note": "(stereo not drawn)", "Potency": "inconclusive [cytotoxic, single point]"}, {"molecule": "O=S(OCCN1CCCC1)C(c1ccccc1)c1ccccc1", "note": "(stereo not drawn)", "Potency": "inconclusive [cytotoxic, single point]"}, {"molecule": "Cc1cccnc1NC(=O)c1ccc(Cl)c(S(=O)(=O)N2CCCCCC2)c1", "activity, negative = toxicity": "inconclusive: -21.7% [cytotoxic]"}, {"molecule": "Cc1ccc(Cn2c(CCNc3nc(-c4ccc(Cl)c([N+](=O)[O-])c4)cs3)nc3cc(C(=O)NCCCO)ccc32)cc1", "Potency": "inconclusive [cytotoxic, single point]"}, {"molecule": "Cc1cccc2cc(CN(CC3CCCO3)C(=S)NCc3ccco3)c(=O)[nH]c12", "note": "(stereo not drawn)", "Potency": "inconclusive [cytotoxic, partial curve, poor fit]"}, {"molecule": "COc1cccc(NC(=S)N2CCC(NC(=O)c3ccco3)CC2)c1", "Potency": "inactive"}, {"molecule": "O=C(Oc1cccc(/C=N/Nc2nc(Nc3ccccc3)nc(N3CCOCC3)n2)c1)c1ccco1", "Potency": "inconclusive [cytotoxic, single point]"}, {"molecule": "N#Cc1c(Nc2ccc(Cl)cc2)s[nH]c1=O", "Potency": "inconclusive [cytotoxic, single point]"}, {"molecule": "CCC(CC)C(=O)Nc1nnc(S(=O)(=O)N2CCc3ccccc32)s1", "Potency": "inactive"}, {"molecule": "CS(=O)(=O)c1ccc2nc(NC(=O)CC3CCCC3)sc2c1", "Potency": "inconclusive [cytotoxic, single point]"}, {"molecule": "CCOc1ccc(NS(=O)(=O)c2ccc(NC(=S)NC(=O)CC(C)C)cc2)cc1", "activity, negative = toxicity": "inactive: -5.34% [at 9.24 µM]"}, {"molecule": "Cc1ncoc1C(=O)N1CCCC(C(=O)Nc2cccc(-c3ccc(F)cc3)c2)C1", "note": "(stereo not drawn)", "Potency": "inactive"}, {"molecule": "N#C/C(C(=O)NCCc1ccccc1)=C1/N=C(NC(=O)c2cccs2)c2ccccc21", "Potency": "inconclusive [cytotoxic, partial curve]"}, {"molecule": "Cc1onc(-c2c(Cl)cccc2Cl)c1C(=O)NC1CCCCC1", "Potency": "inactive"}, {"molecule": "N#Cc1cccc(NC(=O)Cn2c3[n+](c4ccc(C(F)(F)F)cc42)CCCCC3)c1", "Potency": "inactive"}, {"molecule": "Cc1cc(C(=O)COC(=O)c2ccc(O)cc2)c(C)n1CC1CCCO1", "note": "(stereo not drawn)", "Potency": "inactive"}, {"molecule": "[O-][N+]1=c2ccc(Nc3ccccc3)cc2=NC12CCCCC2", "Potency": "active: 16.4 µM"}, {"molecule": "NC(=O)c1ccccc1OCC(=O)c1ccc(Cl)cc1", "Potency": "inactive"}, {"molecule": "CC1(C(=O)Nc2ccc(Cl)cc2)Cc2c(-c3cccc(C(N)=O)c3)ccnc2O1", "note": "(stereo not drawn)", "Potency": "active: 4.61 µM"}, {"molecule": "COc1ccc(/C=N/Nc2nnc(Cc3ccc(OC)c(OC)c3)c(=O)[nH]2)cc1OC", "Potency": "inconclusive [cytotoxic, single point]"}, {"molecule": "COc1cc(CCC(=O)Nc2ccc(C)c(S(=O)(=O)N(C)C)c2)cc(OC)c1OC", "Potency": "inconclusive [cytotoxic, single point]"}, {"molecule": "C/C(CC1CC2=C(CC1(C)C)C(C)(C)CCC2)=N\\NC(N)=S", "note": "(stereo not drawn)", "Potency": "active: 5.62 µM"}, {"molecule": "CC(=O)c1cc(C#N)c(SCC(=O)OC(C)C)nc1C", "Potency": "inactive"}, {"molecule": "O=C(CN1C(=O)NC2(CCCCCC2)C1=O)Nc1ccc([N+](=O)[O-])cc1", "Potency": "inconclusive [cytotoxic, single point]"}, {"molecule": "O=C(Nc1nnc(C2=COCCO2)o1)c1cccc(Br)c1", "Potency": "inconclusive [cytotoxic, single point]"}, {"molecule": "Cc1noc(N)c1C(=O)Nc1ccc(C(C)(C)C)cc1", "Potency": "inconclusive [cytotoxic, single point]"}, {"molecule": "O=C(Oc1c(Cl)cc(Cl)c2cccnc12)c1ccco1", "Potency": "inconclusive [cytotoxic, single point]"}, {"molecule": "COc1nc(OC)nc(N2CCC(C(=O)NCC3CCCCC3)CC2)n1", "Potency": "inactive"}, {"molecule": "CCC(=O)Nc1nnc(SCC(=O)NCC2CCCO2)s1", "note": "(stereo not drawn)", "Potency": "inconclusive [cytotoxic, partial curve, poor fit]"}, {"molecule": "CCc1sc(C(=O)Nc2ncccc2O)cc1C", "Potency": "inconclusive [cytotoxic, single point]"}, {"molecule": "COCCNC(=S)N(CCc1c(C)[nH]c2ccc(F)cc12)Cc1ccc(C)cc1", "Potency": "inconclusive [cytotoxic, partial curve]"}, {"molecule": "CCOC(=O)CC(=O)CSc1nc(N)c(C#N)c(-c2ccc(Cl)cc2)c1C#N", "Potency": "inconclusive [cytotoxic, single point]"}, {"molecule": "Cc1cccc(N/C(=N\\S(=O)(=O)c2ccccc2)C(F)(F)F)c1", "Potency": "inactive"}, {"molecule": "Cc1onc(-c2ccccc2Cl)c1C(=O)N(Cc1ccccc1)C(C)C", "Potency": "inactive"}, {"molecule": "O=C(NCCc1nc2ccccc2[nH]1)/C(=C/c1ccc2c(c1)OCO2)NC(=O)c1ccc(Cl)cc1Cl", "Potency": "inconclusive [cytotoxic, single point]"}, {"molecule": "O=C(Nc1ccc(S(=O)(=O)N2CCOCC2)cc1)c1ccc(S(=O)(=O)N2CCOCC2)cc1", "Potency": "inactive"}, {"molecule": "CS(=O)(=O)c1ccc(Nc2nc(C(N)Cc3ccc(C(F)(F)F)cc3)cs2)cc1", "note": "(stereo not drawn)", "Potency": "inconclusive [cytotoxic, single point]"}, {"molecule": "Clc1ccc(CSc2nnc(CN3CCOCC3)n2-c2ccccc2)cc1Cl", "Potency": "inconclusive [cytotoxic, single point]"}, {"molecule": "CN1CCc2c(sc(NC(=O)c3ccc([N+](=O)[O-])o3)c2C(N)=O)C1", "Potency": "active: 0.58 µM"}, {"molecule": "CS(=O)(=O)c1ccc(Nc2nc(C(N)CCc3ccccc3)cs2)cc1", "note": "(stereo not drawn)", "Potency": "inconclusive [cytotoxic, single point]"}, {"molecule": "O=C(NC(NCc1ccccn1)(C(F)(F)F)C(F)(F)F)c1ccco1", "Potency": "inconclusive [cytotoxic, partial curve, poor fit]"}, {"molecule": "CCn1c(=O)c(C(=O)NNC(=O)c2cccc(Cl)c2)c(O)c2ccccc21", "Potency": "inconclusive [cytotoxic, partial curve]"}, {"molecule": "Cc1nc(NCCc2ccc(S(N)(=O)=O)cc2)c2c3c(sc2n1)CCC3", "Potency": "inconclusive [cytotoxic, single point]"}, {"molecule": "O=C(NC1CCCC1)c1ccc(Br)c(S(=O)(=O)N2CCCCC2)c1", "Potency": "inactive"}, {"molecule": "O=C(NCC1CCCCC1)c1cccc(-c2ccc(O)cc2)c1", "Potency": "inconclusive [cytotoxic, partial curve]"}, {"molecule": "Cc1cccc2sc(NNC(=O)c3cc(-c4cccs4)nc4ccccc34)nc12", "Potency": "active: 20.6 µM"}, {"molecule": "COc1ccc(S(=O)(=O)Nc2ccc3c(c2)OCCO3)cc1Cl", "Potency": "inactive"}, {"molecule": "CCc1noc(C)c1C(=O)Nc1ccccc1N1CCOCC1", "Potency": "inactive"}, {"molecule": "CC(=O)Nc1cc(-c2ccccc2F)cn2c(-c3cccc(C(F)(F)F)c3)cnc12", "Potency": "inconclusive [cytotoxic, single point]"}, {"molecule": "COc1ccccc1Oc1nc(-c2ccccc2)cc(C)c1S(C)(=O)=O", "Potency": "inconclusive [cytotoxic, single point]"}, {"molecule": "CCC(Oc1ccccc1)C(=O)Nc1ccccc1N1CCCC1", "note": "(stereo not drawn)", "Potency": "inactive"}, {"molecule": "Cn1c(SCC(=O)Nc2ccc(Cl)cc2F)nnc1-c1ccco1", "Potency": "inactive"}, {"molecule": "CCCC/C=C1\\CCc2c([nH]c3ccccc23)C1=O", "Potency": "inactive"}, {"molecule": "Cc1ccc(-c2nn(-c3ccccc3)cc2/C=C/C(=O)Nc2nccs2)cc1", "Potency": "active: 9.2 µM"}, {"molecule": "C(=C\\c1ccccc1)/CN1CCN(C(c2nnnn2Cc2ccccc2)C2CC2)CC1", "note": "(stereo not drawn)", "Potency": "inconclusive [cytotoxic, single point]"}, {"molecule": "CCc1ccc(CN(C)C(=O)c2cc(COc3cccc4cnccc34)on2)cc1", "Potency": "active: 14.6 µM"}, {"molecule": "Oc1ccc(C[C@H]2CNC(=S)N2CC2CCCN2C[C@H](Cc2ccccc2)N2C[C@H](Cc3ccc(O)cc3)N(CC3CCCCC3)C2=S)cc1", "note": "(stereo partly drawn)", "Potency": "active: 25.9 µM"}, {"molecule": "CC1CCN(c2nc(-c3ccncc3)nc3ccccc23)CC1", "Potency": "inconclusive [cytotoxic, single point]"}, {"molecule": "Cc1cc(C)cc(NC(=O)CN2CCCN(S(=O)(=O)c3ccc(Br)s3)CC2)c1", "Potency": "inconclusive [cytotoxic, single point]"}, {"molecule": "Cc1cc2c(c(C)c1CCO)C(=O)[C@H](C)C2", "Potency": "inconclusive [cytotoxic, single point]"}, {"molecule": "Cc1ccc(Cc2cnc(NC(=O)CN3CCOCC3)s2)cc1Cl", "Potency": "inactive"}, {"molecule": "COc1cccc(Nc2nc(C(N)Cc3ccccc3)cs2)n1", "note": "(stereo not drawn)", "Potency": "active: 11.6 µM"}, {"molecule": "Cc1ccc(/C=C(\\C#N)c2nc3ccccc3[nH]2)s1", "Potency": "inconclusive [rising, single point]"}, {"molecule": "Cc1c(OCC(=O)NCC(O)c2ccccc2)ccc2c(-c3ccccc3)cc(=O)oc12", "note": "(stereo not drawn)", "Potency": "inactive"}, {"molecule": "COC(=O)C1Cc2ccccc2CN1C(=O)CCl", "note": "(stereo not drawn)", "Potency": "active: 14.6 µM"}, {"molecule": "CCn1c(CSc2nc3ccccc3s2)n[nH]c1=S", "Potency": "inconclusive [cytotoxic, single point]"}, {"molecule": "COCCNC(=O)c1ccc2c(c1)ncn2-c1ccc(C)c(Cl)c1", "Potency": "inconclusive [cytotoxic, single point]"}, {"molecule": "Cc1ccc(NC(=O)CN(C)S(=O)(=O)c2ccc3c(c2)n(C)c(=O)c(=O)n3C)cc1", "Potency": "inconclusive [cytotoxic, single point]"}, {"molecule": "CCOC(=O)N1CCC(N2C(=O)c3ccccc3C2Nc2ccccc2C)CC1", "note": "(stereo not drawn)", "Potency": "inactive"}, {"molecule": "O=C(CSc1nc2cc3ccccc3cc2[nH]1)Nc1ccc(F)cc1", "Potency": "inconclusive [cytotoxic, single point]"}, {"molecule": "CN(C)Cc1csc(NC(=O)Nc2ccccc2Cc2ccccc2)n1", "Potency": "inconclusive [cytotoxic, single point]"}]}]}
